Measured values from patent US12485191B2, “Radiopharmaceuticals and methods of use thereof” (BOARD OF REGENTS OF THE UNIVERSITY OF NEBRASKA, priority 2017, dated 2025).
For some of these results: Part of at least one peptide drawing is inferred or uncertain, most often the ends. Marks after values point to notes of the source that are not given here. For some of these results: At least one compound was matched to its structure with a doubt left.

Key:
[1] = Distribution coefficient (Log D7.4) of the conjugates; format: physicochemical; settings: determined by radiometric analysis; 177Lu-labeled conjugate
Description: Distribution Coefficient (Log D7.4) of the Conjugates The distribution coefficient was determined for each ^177Lu-labeled conjugate. In a 1.5 mL centrifuge tube, 0.5 mL of 1-octanol was added to 0.5 mL of PBS (pH 7.4) containing the radiolabeled peptide (500,000 cpm). The solution was vigorously vortexed for 2 minutes at room temperature and subsequently centrifuged to yield two immiscible layers. The radioactivity of the aliquots (100 μL) taken from each layer were quantified by the gamma counter and the Log D7.4 for each conjugates was calculated.

HT-29 cells [2] = experiment: HT-29 cell efflux study; format: cell-based, human; settings: at 24 hours
Description: The HT-29 Cell Efflux Studies
The ^177Lu radioconjugate was added to a sterilized 1.5 mL microcentrifuge tube containing HT-29 cells ˜1×10^6) suspended in 300 μL of cell culture medium, yielding a final radioactivity concentration of 100,000 cpm/100 μL, and was incubated for 2 hours at 37° C. After the removal of the culture medium, the cells were washed with fresh medium (5×500 μL) followed by the addition of 500 μL of fresh medium for the efflux assay. At 0, 1, 2, 4, 8, and 24 hour time interval, fresh medium (500 μL) was added to the tube to replace the old medium which was harvested for quantitative analysis of the effluxed radioactivity using a gamma counter. The cells were lysed with a 10% aqueous SDS solution at 24 hour to quantify the remaining internalized radioactivity. The effluxed fraction is expressed as a percentage of the total radioactivity added to the tube, which is the sum of the effluxed and internalized fractions obtained from the study.

HT-29 xenograft tumors = experiment: Tissue adduct formation of the radioconjugates (SDS-PAGE, centrifugal filtration); format: in vivo, mice; settings: autoradiographic SDS-PAGE, 24 hours post-injection
Description: The radioconjugates (800 μCi/mouse) were intravenously injected to the tumor bearing mice. The mice were sacrificed and the tumor, liver, and kidney were excised at 24 and 72 hours post-injection time points. The tumor and organs were homogenized in RIPA buffer (50 mg/100 μL) containing Halt™ protease inhibitor (100×, 1 μL) on ice and centrifuged to remove the pellet. An aliquot (20 μL) of the supernatant of the sample at 24 hours was mixed with Novex Tris-Glycine SDS sample buffer (2×, 20 μL) and incubated for further 10 minutes. The mixtures (20 μL) were loaded onto a Novex 16% tris-glycine gel and analyzed by SDS-PAGE at 110 V for 90 minutes. The autoradiograph of the SDS-PAGE was performed according to the same method in section 3.8.1. On the other hand, the aliquots (100 μL) of supernatants of all the tumor samples at 24 hours and 72 hours were individually centrifuged with Pierce™ protein concentrators (MWCO=10 kDa) to separate the low molecular weight radioactivity. The radioactivity in each fraction was quantified using a gamma counter to calculate the percentage of the cysteine proteases trapped radioconjugate in the total counts.

HT-29 cells [3] = experiment: Time-dependent retention of CatB-conjugate adducts in HT-29 cells; format: cell-based, human; settings: HT-29 cells after 4 hours pre-incubation
HT-29 cells [4] = experiment: Intracellular trapping of the radioconjugates in living HT-29 cells (GPC, SDS-PAGE); format: cell-based, human
Description: Intracellular Trapping of the Radioconjugates in Living HT-29 Cells
To the HT-29 cells (1×10^6/well) seeded in 6-well plates was added the radioconjugates (0.74 MBq, 20 μCi) in 1 mL of cell culture medium. The cells were incubated at 37° C. for 4 hours and the medium was removed by vacuum followed washing with PBS (2×2 mL). The cells (˜3×10^6) were trypsinized and combined in microcentrifuge. The RIPA buffer (100 μL) containing Halttmprotease inhibitor (100×, 1 μL) was added to the cell pellet and vigorously vortexed for 1 minute. The suspension was incubated on ice for 15 minutes and centrifuged to remove the pellet. The supernatant (80 μL) was equally divided into two portions. The first portion (40 μL) was directly analyzed by radioactive-GPC with a flow rate of 0.6 mL/minute (40% ACN in PBS containing 0.1% sodium azide). The second portion (40 μL) of the cell lysate was mixed with Novex Tris-Glycine SDS sample buffer (2×) (40 μL) and incubated for another 15 minutes. The mixture (30 μL) was loaded onto a Novex 16% tris-glycine gel and analyzed by SDS-PAGE at 110 V for 90 minutes. The autoradiograph of the SDS-PAGE was performed as described above.

[5] = molecular target: T1, cathepsin B (human Liver) (Homo sapiens, UniProt P07858); experiment: Cathepsin B binding of the radioconjugates (autoradiographic SDS-PAGE); settings: 2 hours
T1 construct: from tissue; host or cells: human liver
Description: Cathepsin B Binding of the Radioconjugates This procedure uses the same solutions as described above. The cathepsin B (human Liver)(3 nM, 10 μL) in storing buffer was added to the solution of the radioconjugate (500,000 cpm) in 40 μL of binding assay buffer and kept on ice for 2 hours. An aliquot (25 μL) of the solution was mixed with Novex Tris-Glycine SDS sample buffer (2×) (25 μL) and incubated for a further 10 minutes. The mixtures (20 μL) were loaded onto a Novex 16% tris-glycine gel and analyzed by SDS-PAGE at 110 V for 90 minutes. The autoradiograph of the SDS-PAGE was performed as described above.

[6] = molecular target: T1, cathepsin B (human Liver); experiment: Inhibition constant (Ki) of the compounds to cathepsin B; format: biochemical; settings: Table 3; read-out: CatB Ki
Description: Determination of the Km and Vmax of Cathepsin B for Z-Arg-Arg-AMC
The solution of cathepsin B (human Liver) (50 μL, 2 nM) in assay buffer used above was mixed with 50 μL of solution of substrate Z-Arg-Arg-AMC in the assay buffer at different concentrations ([S]) (25 μM, 50 μM, 100 μM, 500 μM and 1 mM). The mixture was incubated at 37° C. and the fluorescence of the liberated aminomethylcoumarin at 460 nM using 355 nm excitation was measured at predetermined time points (0, 2, 4, 6, 8, and 10 minutes). The fluorescence intensity was plotted versus time and the reaction rates (v0) were calculated as the slope of the trend lines obtained by liner regression. Km and maximum reaction rate (Vmax-obs) was determined from the equation v0=Vmax[S]/(Km+[S]) and solved by nonlinear regression using GraphPad Prism 5. All measurements were in biological triplicate.
Determination of the Inhibition Constant (Ki) of the Compounds to Cathepsin B
The cathepsin B (human Liver) in assay buffer (25 μL) was mixed with the conjugate (25 μL) in 96-well plate. After the solution was mixed, the Z-Arg-Arg-AMC in assay buffer (50 μL) was added to the well, yielding a final cathepsin B concentration of 1 nM, conjugate concentration ([C]) of 15 nM or 5 μM, and substrate concentration ([S]) of 25 μM, 50 μM, 100 μM, 500 μM and 1 mM. The mixture was incubated at 37° C. and the fluorescence of the liberated aminomethylcoumarin at 460 nM using 355 nm excitation was measured at predetermined time points (0, 2, 4, 6, 8, and 10 minutes). The fluorescence intensity was plotted versus time with observed reaction rates (v0-obs) calculated as the slope of the trend lines obtained by liner regression. The observed rate constant (Kobs) and observed maximum reaction rate (Vmax-obs) was determined from the equation v0-obs=Vmax-obs [S]/(Kobs+[S]) and solved by nonlinear regression using GraphPad Prism 5. The Ki was calculated from the equation Kobs=Km (1+[C]/Ki). All measurements were in biological triplicate.

CatL = CatL (Homo sapiens, UniProt P07711); experiment: CatL inhibition constant; format: biochemical
NTSR1 = molecular target: T2, NTSR1 (Homo sapiens, UniProt P30989); experiment: In vitro competitive neurotensin receptor binding in HT-29 cells vs 177Lu-N1; settings: Table 3; read-out: NTR1 IC50
T2 construct: endogenous in cells; host or cells: HT-29 human colon cancer cells (ATCC)
Description: In Vitro Competitive Neurotensin Receptor Binding Studies
The IC50 for the unlabeled conjugates binding to the neurotensin receptors was determined using the HT-29 human colon cancer cell line. […]. Med. Biol., 42:816), served as the competitive radioligand for comparing the relative binding affinities of the conjugates. HT-29 cells (˜1×10^6) suspended in 100 μL of McCoy's 5A medium (pH 7.4, 4.8 mg/mL HEPES, and 2 mg/mL BSA) were incubated with 177Lu-N1 (100,000 cpm, 100 μL) at 37° C. for 45 minutes in the presence of the conjugates with predetermined concentrations (0.5 nM-1 μM) in 100 μL of medium. At the end of the incubation, the cells were centrifuged, aspirated, and washed with fresh medium (5×500 μL). The cell-associated radioactivity was measured using gamma counter and the IC50 values determined by nonlinear regression using GraphPad Prism 5. All measurements were in biological triplicate.

Chain of CatL (P07711 114-333): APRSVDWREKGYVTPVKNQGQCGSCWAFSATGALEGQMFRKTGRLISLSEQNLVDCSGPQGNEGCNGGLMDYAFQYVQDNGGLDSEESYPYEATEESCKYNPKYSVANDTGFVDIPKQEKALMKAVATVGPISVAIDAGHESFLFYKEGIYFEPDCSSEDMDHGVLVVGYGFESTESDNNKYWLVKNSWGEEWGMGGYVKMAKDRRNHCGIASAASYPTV
T2 sequence (P30989 whole entry): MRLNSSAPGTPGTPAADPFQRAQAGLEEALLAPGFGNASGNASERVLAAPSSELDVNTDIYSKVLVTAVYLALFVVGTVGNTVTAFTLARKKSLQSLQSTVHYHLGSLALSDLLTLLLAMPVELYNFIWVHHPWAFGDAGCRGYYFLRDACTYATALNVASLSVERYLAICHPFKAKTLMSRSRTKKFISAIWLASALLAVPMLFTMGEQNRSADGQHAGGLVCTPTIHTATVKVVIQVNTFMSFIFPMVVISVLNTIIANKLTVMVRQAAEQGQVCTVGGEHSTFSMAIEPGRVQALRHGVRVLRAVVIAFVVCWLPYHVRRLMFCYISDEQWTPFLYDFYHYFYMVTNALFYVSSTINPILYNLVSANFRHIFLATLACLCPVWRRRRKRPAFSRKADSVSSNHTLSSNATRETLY

Row | Structure (SMILES) | logD7.4 [1] | efflux (HT-29 cells [2]) | in vivo adduct formation (in words) (HT-29 xenograft tumors) | radioactive SDS-PAGE signal of adducts at 24 hours relative to 2 hours (HT-29 cells [3]) | percentage of macromolecular adducts with respect to total intracellular activity (HT-29 cells [4]; GPC profile, HT-29 cells, 4 hours incubation) | intracellular adduct formation (in words) (HT-29 cells [4]; live HT-29 cells, GPC and SDS-PAGE) | adduct formation with CatB (in words) [5] | Ki [6] | Ki (CatL) | IC50 (NTSR1)
1 | Cc1cc(C)c(C(=O)OCC(=O)[C@H](CCCCNC(=O)CNC(=O)[C@@H](CO)NC(=O)[C@@H](CO)NC(=O)[C@@H](CO)NC(=O)Cn2cc(C[C@H](NC(=O)CN3CCN(CC(=O)O)CCN(CC(=O)O)CCN(CC(=O)O)CC3)C(=O)N[C@H](CO)C(=O)N[C@H](CO)C(=O)N[C@H](CO)C(=O)N[C@@H](CCCCN)C(=O)N3CCC[C@H]3C(=O)N(C)[C@@H](CCCNC(=N)N)C(=O)N[C@@H](CCCNC(=N)N)C(=O)N3CCC[C@H]3C(=O)N[C@@H](Cc3c(C)cc(O)cc3C)C(=O)N[C@H](C(=O)N[C@@H](CC(C)C)C(=O)O)C(C)(C)C)nn2)NC(=O)[C@H](Cc2ccccc2)NC(=O)OCc2ccccc2)c(C)c1 [Compound 2f] | −1.95 ± 0.05^b | 39% | in vivo adduct formation | 51% | 66% | multiple macromolecule adducts formed | adduct formation | – | – | –
2 | Cc1cc(O)cc(C)c1C[C@H](NC(=O)[C@@H]1CCCN1C(=O)[C@H](CCCNC(=N)N)NC(=O)[C@H](CCCNC(=N)N)N(C)C(=O)[C@@H]1CCCN1C(=O)[C@H](CCCCN)NC(=O)[C@@H](CO)NC(=O)[C@@H](CO)NC(=O)[C@@H](CO)NC(=O)[C@H](Cc1cn(CCNC(=O)[C@H](CCCNC(=N)N)NC(=O)[C@H](CC(C)C)NC(=O)C2OC2C(=O)O)nn1)NC(=O)CN1CCN(CC(=O)O)CCN(CC(=O)O)CCN(CC(=O)O)CC1)C(=O)N[C@H](C(=O)N[C@H](C(=O)O)C(C)C(C)C)C(C)(C)C (stereo partly shown) [Ea] | – | – | – | – | – | – | – | 34 ± 3 nM | 21 ± 1 nM | 60 ± 8 nM
